From PubChem BioAssay AID2528 (National Center for Advancing Translational Sciences (NCATS), 2010)
Several values for one entry are separate records, joined by “and”; a condition that tells them apart may be missing. Equal values may be shown once. In all, about 350,000 compounds went through this assay and about 700 (0.2%) were called active. Inconclusive results, whose numbers are uncertain, are shown with a selection of clear calls. Calls follow the shape of the dose curve; as a rule, active = well fitted inhibition curve with a large enough effect; inconclusive = small, poorly fitted or top-dose-only effect; inactive = flat fitted curve, though single readings scatter. Potencies of inconclusive entries are left out as doubtful fits.

Molecular target: RecQ-like DNA helicase BLM (Homo sapiens) (UniProt P54132)
UniProt P54132, sequence (P54132 whole entry, looked up): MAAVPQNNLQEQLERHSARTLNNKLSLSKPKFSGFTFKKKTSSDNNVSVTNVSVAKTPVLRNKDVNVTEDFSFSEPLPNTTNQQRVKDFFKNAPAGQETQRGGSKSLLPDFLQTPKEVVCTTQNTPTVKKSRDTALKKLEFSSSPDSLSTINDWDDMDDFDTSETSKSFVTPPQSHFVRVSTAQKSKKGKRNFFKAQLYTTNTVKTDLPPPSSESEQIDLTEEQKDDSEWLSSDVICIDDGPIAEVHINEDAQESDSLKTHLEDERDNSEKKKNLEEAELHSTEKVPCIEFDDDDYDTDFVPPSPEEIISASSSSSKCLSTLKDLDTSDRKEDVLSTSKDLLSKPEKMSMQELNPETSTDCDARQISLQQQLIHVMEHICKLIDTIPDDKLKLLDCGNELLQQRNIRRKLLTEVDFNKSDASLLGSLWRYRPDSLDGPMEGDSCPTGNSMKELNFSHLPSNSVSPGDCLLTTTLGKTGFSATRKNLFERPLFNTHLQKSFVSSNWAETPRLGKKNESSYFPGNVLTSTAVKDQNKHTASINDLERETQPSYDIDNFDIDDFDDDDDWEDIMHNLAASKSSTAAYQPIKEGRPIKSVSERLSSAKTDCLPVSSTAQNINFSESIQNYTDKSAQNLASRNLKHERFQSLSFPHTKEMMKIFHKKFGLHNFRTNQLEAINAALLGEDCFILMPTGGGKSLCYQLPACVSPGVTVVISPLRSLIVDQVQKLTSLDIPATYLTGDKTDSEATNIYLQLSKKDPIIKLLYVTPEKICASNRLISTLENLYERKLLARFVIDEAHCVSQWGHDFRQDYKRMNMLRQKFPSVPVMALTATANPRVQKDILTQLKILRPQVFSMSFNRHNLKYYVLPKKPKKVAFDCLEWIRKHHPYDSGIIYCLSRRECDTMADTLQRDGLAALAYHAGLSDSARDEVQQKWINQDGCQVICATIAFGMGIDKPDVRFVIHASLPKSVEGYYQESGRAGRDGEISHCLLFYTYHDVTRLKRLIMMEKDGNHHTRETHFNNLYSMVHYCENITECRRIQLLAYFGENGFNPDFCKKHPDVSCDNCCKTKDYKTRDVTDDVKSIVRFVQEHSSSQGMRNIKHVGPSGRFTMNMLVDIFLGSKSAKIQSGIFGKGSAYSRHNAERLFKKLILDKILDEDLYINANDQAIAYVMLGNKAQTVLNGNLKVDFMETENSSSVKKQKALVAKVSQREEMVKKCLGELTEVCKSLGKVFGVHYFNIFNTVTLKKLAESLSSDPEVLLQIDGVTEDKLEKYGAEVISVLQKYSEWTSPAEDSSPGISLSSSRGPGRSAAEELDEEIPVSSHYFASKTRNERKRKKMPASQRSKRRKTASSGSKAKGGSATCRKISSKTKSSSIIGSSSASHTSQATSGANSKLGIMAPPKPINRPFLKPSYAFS
Assay: qHTS Assay for Inhibitors of Bloom's syndrome helicase (BLM); also: nearly all actives have a fitted effect of over 35% in size;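 as to activity change, negative = inhibition: plate controls were vehicle for no effect and no enzyme for full effect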
Conditions: recombinant BLM DNA unwinding, fluorescence dequenching; series mostly up to 56.1 µM; activity change, negative = inhibition: at the top concentration
Potency is read from the fitted curve at half-maximal effect; tags tell the direction and shape of the fitted curve.

Structure (SMILES)	activity change, negative = inhibition	Potency
COc1ccc2c([N+](=O)[O-])c(Cl)[nH]c2c1	inactive: -7.42%	
COc1cc(OC)c(NC(=O)c2nc(-c3ccncc3)no2)cc1Cl	inactive: 1.3%	
Nc1nc(Nc2cccc(Cl)c2)nc(NCCO)c1[N+](=O)[O-]		inconclusive [inhibitor, single point]
Cc1ccc(/C=C/C2=Cc3c(sc(NC(=O)CSc4n[nH]c(N)n4)c3C#N)C(C)(C)C2)o1		inconclusive [inhibitor, single point]
CC(=O)Oc1ccc2c(=O)c(/C=N/c3cc(=O)[nH]c(=S)[nH]3)coc2c1	inactive: 0.122%	
O=C1N=c2ccccc2=C1c1sc(Nc2ccc(O)cc2)nc1O		inconclusive [inhibitor, partial curve]
CCOCCOC(=O)c1ccc(NC(=O)C2COc3ccccc3O2)cc1 (centres undefined)		inconclusive [inhibitor, single point]
NNC(=O)COc1ccc(-c2n[nH]c(C(F)(F)F)c2-c2ccc(Br)cc2)c(O)c1		inconclusive [inhibitor, single point]
COC(=O)c1cnn2c(C)c(Cc3cccc(F)c3)c(C)nc12	inactive: 0.874%	
O=c1c(Cl)c(Cl)cnn1Cc1ccccc1Cl		inconclusive [inhibitor, partial curve]
Cc1ccc(NC(=O)CSc2ccc(-c3ccco3)nn2)c(C)c1		inconclusive [inhibitor, partial curve]
COc1ccc(-c2nnc3n2N=C(c2ccccc2OC)CS3)c(OC)c1	inactive: 5.21%	
CCCNC(=O)c1ccc(-c2nc(CS(=O)(=O)c3ccc(C)cc3)c(C)o2)cc1	inactive: -6.76%	
CN(C)S(=O)(=O)c1cccc(-c2nn(-c3ccccc3)cc2/C=C2\SC(=S)N(CC(=O)O)C2=O)c1		inconclusive [inhibitor, single point]
O=C(/C=C/c1ccc(N2CCC(c3ccccc3)=N2)cc1)c1ccccc1	inactive: -7.73%	
O=C(N/N=C\C=C\c1ccco1)c1cncc(Br)c1		inconclusive [inhibitor, single point]
O=C(CSc1nc2nc(-c3cccs3)cc(C(F)(F)F)c2c(=O)[nH]1)Nc1ccc(F)c(F)c1		inconclusive [inhibitor, single point]
N#Cc1ccccc1CN1C(=O)S/C(=C/c2cccn2-c2cccc(C(=O)O)c2)C1=O		inconclusive [inhibitor, partial curve]
C/C(N)=C(/C#N)C(=O)CSc1nnnn1-c1ccc(C)cc1	inactive: -7.11%	
O=C(O)c1ccccc1-c1c2cc(Br)c(=O)c(Br)c-2oc2c(Br)c(O)c(Br)cc12		active: 8.91 µM and active: 28.2 µM
CCOC(=O)C1CCN(c2nc(N)c3c(N)nc(SCC(=O)O)cc3c2C#N)CC1		active: 25.1 µM
CCOc1ccc(Nc2nc(NCC3CCCO3)c3ccccc3n2)cc1 (centres undefined)		active: 28.2 µM

Structure (SMILES)	activity change, negative = inhibition	Potency
Cc1cccc([C@@H]2CN(C)CCc3c2cc(O)c(O)c3Cl)c1	inactive: -9.53%	
CC(OC(=O)CNS(=O)(=O)c1ccc2ccccc2c1)C(=O)N(C)c1ccccc1 (centres undefined)		inconclusive [inhibitor, single point]
O=C(O)c1ccccc1N=Nc1c(O)[nH]c2ccc([N+](=O)[O-])cc12		inconclusive [inhibitor, single point]
COCc1ccc(C(=O)N(C)CC2CCCN(CCc3ccccc3F)C2)o1 (centres undefined)		inconclusive [inhibitor, single point]
Nc1nc(Nc2cccc(F)c2)nc(NCc2ccco2)c1[N+](=O)[O-]		inconclusive [inhibitor, single point]
Cc1ccc(C(C#N)c2ccc3c(C(F)(F)F)cc(C(F)(F)F)nc3n2)cc1 (centres undefined)	inactive: -9.21%	
Cc1ccc(-n2c(SCC(=O)Nc3ccc4c5c(cccc35)CC4)nc(O)cc2=O)cc1		inconclusive [inhibitor, partial curve]
N#CC(c1ccc(Cl)cc1)c1c(Cl)cc(-n2ncc(=O)[nH]c2=O)cc1Cl (centres undefined)	inactive: -3.77%	
O=C(Cc1cccs1)Nc1ccc(S(=O)(=O)N2CCCC2)cc1		active: 17.8 µM
COc1ccc(C(=O)CSc2nnc(-c3ccco3)c(-c3ccco3)n2)cc1		inconclusive [inhibitor, partial curve]
COc1cc(CCN2C(=O)N[C@@H](c3ccccc3)C(C(C)=O)=C2C)cc(OC)c1OC	inactive: 3.51%	
COc1cccc(/C=N/NC(=O)c2[nH]nc3c2CCc2ccccc2-3)c1O		inconclusive [inhibitor, single point]
CCCCCCCCCCCCCCCC[n+]1ccc(/C=N/O)cc1		inconclusive [inhibitor, single point]
Cc1cccc(Nc2nc(N)nc(-c3oc4ccccc4c3C)n2)c1		inconclusive [inhibitor, single point]
CCOc1ccc(C(=O)Nc2cc(-c3nc4ccccc4[nH]3)ccc2Cl)cc1[N+](=O)[O-]		inconclusive [inhibitor, single point]
CC(=O)c1ccc(S(=O)(=O)Nc2cccc(-c3ccc(N4CCCC4)nn3)c2)cc1	inactive: -7.5%	
O=C(COc1cccc2ccccc12)N/N=C/c1ccccc1OCc1ccc(C(=O)O)cc1		inconclusive [inhibitor, single point]
Cc1nnc(N2CCCC(C(=O)Nc3ccccc3C(F)(F)F)C2)c2nn(-c3ccccc3)c(C)c12 (centres undefined)	inactive: 55.5%	
COc1ccc(NC(=O)CSc2ncnc3sc(C)cc23)cc1	inactive: -3.8%	
Cc1cccc2nc(-c3cccc(NC(=O)c4ccc(Cl)cc4)c3)cn12		inconclusive [inhibitor, single point]
O=C(Nc1cc(S(=O)(=O)Nc2ccc(Cl)cc2)ccc1O)c1ccc(S(=O)(=O)N2CCCCCC2)cc1		inconclusive [inhibitor, partial curve]
NS(=O)(=O)c1ccc(CCNC(=O)c2cc3ccccc3s2)cc1		inconclusive [inhibitor, single point]
